PubChem BioAssay AID1345082 (National Center for Advancing Translational Sciences (NCATS), 2018)
The whole screen tested about 94,000 compounds, of which about 4,000 (4.3%) were called active. Inconclusive means that the source gave no clear call. Such entries were picked first, then a sample of the others. Calls come from the whole dose curve; as a rule, active = well fitted inhibition curve with a large enough effect; inconclusive = small, poorly fitted or top-dose-only effect; inactive = no such curve, though single readings can be large or run the other way. A potency beside an inconclusive call is a rough fit, not a confirmed value.

Experiment: Cytotoxic Profiling in NIH 3T3 Cell Line of Diverse Libraries Using Quantitative High-Throughput Screening; note: nearly all actives have a fitted effect of over 55% in size
Settings: NIH 3T3 viability, CellTiter-Glo ATP luminescence, 48-72 h; series mostly up to 96.7 µM
Procedure, shortened: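 Mouse fibroblast NIH 3T3 cells, 400 per well, received compound via pintool and were incubated for 48 or 72 hr prior to CellTiter-Glo ATP luminescence measurement.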
Potency is the fitted concentration of half-maximal effect; tags give direction and shape of the fitted curve.

Structure (SMILES) | Potency
COc1ccc(-c2ccccc2C(=O)NC2CCc3ccccc32)nn1 (configuration not stated) | inactive
CC1=C(C(=O)Nc2ccccc2)C(c2cccc(C)c2)N2C(CC(=O)NC3CC3)=CSC2=N1 (configuration not stated) | inconclusive: 56.2 µM [inhibitor, single point]
O=C(Cc1ccccn1)N1CCc2nc(C3CC3)nc(-c3ccc(Cl)cc3)c2C1 | inconclusive: 56.2 µM [inhibitor, partial curve, poor fit]
CN(C)C(=O)c1ccc2cc[nH]c2n1 | inactive
c1ccc(-c2cnc(Nc3ccncc3)c3c2CCO3)cc1 | active: 44.7 µM
CC(C)(C)C(=O)N[C@H]1C[C@@H](Cc2cc(COc3ccccc3)on2)C1(C)C | inconclusive: 89.1 µM [inhibitor, partial curve]
Cc1ccc2c(C(=O)NC3CCN(C)CC3)cc(NC(=O)C3CCC3)cc2n1 | inactive
CCn1cc(CN2CCCCCCNC(=O)[C@@H]3CCC[C@@H]32)cn1 | inconclusive: 70.8 µM [inhibitor, single point]
CC(C)c1ccccc1OCC(=O)c1ccc2c(c1)N(CC(=O)N1CCCC1)C(=O)CO2 | inactive
O=C1CCN(C(=O)CC2CCCC2)CCCC(c2nc(-c3ccccc3)no2)CCN1 (configuration not stated) | inconclusive: 50.1 µM [inhibitor, partial curve, poor fit]
COc1ncc(CN2CCC3(CC2)OC(=O)N(Cc2ccccc2)C3(C)c2ccccc2)cn1 (configuration not stated) | inactive
COc1ccc(CCNC(=O)Cn2ccn3nc4c(c3c2=O)CCCCC4)cc1OC | inconclusive: 70.8 µM [inhibitor, single point]
Cc1ccc2nc(C3CCN(CC(C)C)CC3)[nH]c(=O)c2c1 | inactive
CCc1ccccc1-n1nc(-c2c(C)nc3scc(CC(=O)NCCOC)n3c2=O)cc1C | inactive
CCn1nccc1C(=O)N1CCC(OCC2CC2)C1 (configuration not stated) | inconclusive: 31.6 µM [inhibitor, partial curve, poor fit]
COc1ccc(-c2nn(-c3ccccc3C)cc2CN2C[C@@H](C)O[C@@H](C)C2)cc1F | inconclusive: 89.1 µM [inhibitor, single point]
COc1cncc(N2CC3(COCC(=O)N(Cc4cccc(OC(F)(F)F)c4)C3)C2)c1 | inconclusive: 56.2 µM [inhibitor, partial curve, poor fit]
CC(C)CNC(=O)C1CCCN(c2nccc(Nc3ccccc3F)n2)C1 (configuration not stated) | active: 44.7 µM
Cc1nn(-c2ccccc2)c2c1C(C1CC1)N(C1CCN(C(=O)c3ccccc3F)C1)C2=O (configuration not stated) | inconclusive: 35.5 µM [inhibitor, partial curve]
O=C(C1CCCC1)N1CCc2nc(C3CC3)nc(-c3ccc(Cl)cc3)c2C1 | inconclusive: 50.1 µM [inhibitor, partial curve, poor fit]
CCOC(=O)[C@H]1[C@@H](O)C(=O)N(Cc2ccccc2)C12CCN(C(=O)C(C)C)CC2 | inconclusive: 50.1 µM [inhibitor, partial curve, poor fit]

Structure (SMILES) | Potency
Cc1ccc(-c2nnc(C3CN(C(=O)CCC4CCCC4)CC34CCOCC4)o2)cc1 (configuration not stated) | inconclusive: 44.7 µM [inhibitor, partial curve, poor fit]
CNC(=O)c1cc(C2CC2)nc2onc(C3CCN(C(=O)c4ccc(Cl)cc4)CC3)c12 | inconclusive: 50.1 µM [inhibitor, partial curve, poor fit]
CCNC(=O)[C@@H]1C[C@H](NC(=O)c2cccc(-c3ccc(F)cc3)c2)CN1C | inactive
COc1cccc(-c2n[nH]c3c2CC(=O)N(CCc2ccncc2)C3)c1OC | inconclusive: 89.1 µM [inhibitor, single point]
CSCc1nc(CNc2nc(C3CCCC3)nc3c2cnn3C)cs1 | inconclusive: 44.7 µM [inhibitor, partial curve]
COc1ccc(-c2nc(C(C)C)nc3c2CCN(C(=O)c2ccc(C(F)(F)F)cc2)CC3)cc1 | active: 28.2 µM
CCCCCNC(=O)CC(c1cccc(OC)c1OC)c1c[nH]c2ccccc12 (configuration not stated) | inconclusive: 50.1 µM [inhibitor, partial curve, poor fit]
Cc1ccc(C(=O)N2CCC3(CC2)NC(=O)c2ccccc2O3)cc1 | inconclusive: 56.2 µM [inhibitor, partial curve, poor fit]
O=C(Cn1ccn2nc(-c3ccccc3)c(CO)c2c1=O)Nc1ccc2c(c1)CCC2 | inconclusive: 50.1 µM [inhibitor, partial curve, poor fit]
Cc1nn(-c2ccccc2)c2c1C(C)N(C1CCN(C(=O)c3ccc(Cl)nc3)C1)C2=O (configuration not stated) | inconclusive: 39.8 µM [inhibitor, partial curve, poor fit]
OC1(c2nc(Nc3ccc(OC(F)(F)F)cc3)n[nH]2)CCOCC1 | inconclusive: 89.1 µM [inhibitor, partial curve, poor fit]
CCCn1ncc(C(=O)N2CCOCC2CC(=O)N2CCSCC2)c1C (configuration not stated) | inactive
COc1ccc(-c2cccc(C(=O)NCc3cccc(Cl)c3)c2)nn1 | active: 35.5 µM
CC(=O)N1CCC(c2nn(-c3ccc(Cl)cc3)c(=O)[nH]2)CC1 | inactive
O=C(c1ccc(F)cc1)N1CCC[C@H]1c1nc(-c2ccccc2Cl)no1 | inactive
CN1Cc2c(cc(N3CCOCC3)nc2-c2cccc(N[S+](C)(=O)[O-])c2)C1=O | active: 14.1 µM
CN(C)C(=O)N1C2CCC1CN(c1ccc(C(F)(F)F)cc1)C2 | inconclusive: 22.4 µM [inhibitor, full curve, poor fit]
CN(Cc1ccccc1)C(=O)[C@@H]1Cc2nc[nH]c2CN1 | inactive
O=C1NC[C@@H](CCC(=O)N2CCCCC2)N2C[C@@H](NC(=S)Nc3ccc(Cl)cc3)C[C@@H]12 | inactive
O=C(NC1CCc2nn(CC3CC3)c(=O)n2CC1)c1ccc(Cn2ccnc2)o1 (configuration not stated) | inactive
N#Cc1cccc(NC(=O)N[C@H]2CO[C@H]3[C@@H]2OC[C@@H]3Nc2nccc(-c3cccc(F)c3)n2)c1 | inconclusive: 44.7 µM [inhibitor, partial curve, poor fit]
